# Test results taken from PMC4336329 (PLoS ONE, 2015).
# In all, about 310,000 compounds went through this assay and about 2,200 (0.71%) showed an effect of 50% or more. The effect is printed as a negative number. The list shows a part of the results.
# Target: human ether-à-go-go-related gene (hERG) potassium channel (human, UniProt Q12809)
# Assay: primary screen, population patch clamp on CHO cells stably expressing hERG
# Sequence of human ether-à-go-go-related gene (hERG) potassium channel (Q12809 whole entry, looked up): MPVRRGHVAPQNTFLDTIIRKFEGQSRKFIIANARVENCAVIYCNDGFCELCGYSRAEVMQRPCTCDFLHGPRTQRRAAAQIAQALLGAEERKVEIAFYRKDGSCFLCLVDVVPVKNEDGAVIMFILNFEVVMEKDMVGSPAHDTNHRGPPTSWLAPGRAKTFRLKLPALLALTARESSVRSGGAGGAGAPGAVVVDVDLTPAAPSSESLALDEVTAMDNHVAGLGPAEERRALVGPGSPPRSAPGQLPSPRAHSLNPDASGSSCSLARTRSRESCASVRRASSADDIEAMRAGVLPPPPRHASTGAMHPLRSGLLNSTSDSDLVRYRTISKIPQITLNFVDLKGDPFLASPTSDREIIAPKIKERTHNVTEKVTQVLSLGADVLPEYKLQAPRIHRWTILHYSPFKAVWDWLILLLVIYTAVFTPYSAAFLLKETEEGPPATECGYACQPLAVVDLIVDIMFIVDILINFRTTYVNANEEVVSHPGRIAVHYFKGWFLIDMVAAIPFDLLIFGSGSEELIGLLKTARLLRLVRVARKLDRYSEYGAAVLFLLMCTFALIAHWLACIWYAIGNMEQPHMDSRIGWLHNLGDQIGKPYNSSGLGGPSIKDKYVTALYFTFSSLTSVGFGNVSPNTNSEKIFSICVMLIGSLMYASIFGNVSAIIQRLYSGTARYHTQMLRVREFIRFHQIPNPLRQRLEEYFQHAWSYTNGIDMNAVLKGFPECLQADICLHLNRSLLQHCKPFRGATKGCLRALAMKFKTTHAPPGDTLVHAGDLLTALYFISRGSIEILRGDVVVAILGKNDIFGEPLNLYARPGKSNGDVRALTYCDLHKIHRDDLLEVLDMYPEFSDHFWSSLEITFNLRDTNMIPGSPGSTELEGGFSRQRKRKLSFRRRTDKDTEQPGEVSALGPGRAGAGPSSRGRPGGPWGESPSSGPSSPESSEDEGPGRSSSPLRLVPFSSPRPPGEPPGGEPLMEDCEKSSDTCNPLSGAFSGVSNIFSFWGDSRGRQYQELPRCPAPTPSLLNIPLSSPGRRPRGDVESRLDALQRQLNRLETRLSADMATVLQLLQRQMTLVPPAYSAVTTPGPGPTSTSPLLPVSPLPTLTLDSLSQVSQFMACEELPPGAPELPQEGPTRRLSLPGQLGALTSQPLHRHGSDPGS
row,SMILES,"hERG current change (%, negative = inhibition) at 1uM"
1,O=c1[nH]c(CSc2nnc3ccccn23)nc2ccccc12,-6.33%
2,Cc1ccc(NC(=O)COC(=O)c2ccc([N+](=O)[O-])s2)c(C)c1,15.6%
3,CC1(c2ccc([N+](=O)[O-])cc2)NC(=O)N(CC(=O)Nc2ccc(N3CCCCC3)cc2)C1=O (stereo not shown),14.8%
4,C=CCn1c(C2CCCCC2)n[nH]c1=S,11.6%
5,CCCc1cc(=O)oc2c3c(cc(OCC(=O)NCc4ccccn4)c12)OC(C)(C)CC3,8.03%
6,CC(C)(C)c1ccc(S(=O)(=O)N2CCC(NC(=O)c3ccco3)CC2)cc1,10.1%
7,Cc1ccc(-c2cccc(C3CC=CC4C3C(=O)N(Cc3ccccc3)C4c3ccc(C(F)(F)F)cc3)c2)cc1 (stereo not shown),18.2%
8,C=CCn1c(SCC(=O)NC)nc2sc3c(c2c1=O)CCC3,-0.307%
9,Cc1ccc(C(=O)Nc2cccc(C(=O)N/N=C/c3ccc(O)cc3)c2)cc1,19%
10,O=C(Nc1ccccc1)Nc1cccc(NC(=O)Nc2ccccc2)c1F,10.5%
11,COc1ccc(/C=C/C(=O)NC(=S)Nc2ccccc2C(=O)NC2CCCCC2)cc1,10.4%
12,Cc1cc(C(=O)COc2cccnc2[N+](=O)[O-])c(C)n1-c1ccccc1F,10.2%
13,CN(c1ccccc1)S(=O)(=O)c1cccc(NC(=O)CSc2nnc(N)s2)c1,16.7%
14,CN1CCN(c2ccc(S(=O)(=O)N3CCCCC3)cc2N)CC1.Cl,5.18%
15,O=C(COC(=O)Cn1cnc2ccccc21)Nc1ccc2c(c1)OCCO2,12.4%
16,CCN(CC(=O)Nc1ccccc1OC)C(=O)c1ccc(N(C)S(=O)(=O)c2ccc(C)cc2)cc1,-20.2%
17,CC(=O)NC1C2CN3CCN(C2)CC1(Cc1ccccc1)C3 (stereo not shown),11%
18,Cc1nc2cc(-n3ccc(=O)cc3)ccc2n1-c1ccccc1,-4.93%
19,CCOc1ccc(N(Cc2ccccc2F)C2=NC3CS(=O)(=O)CC3S2)cc1 (stereo not shown),0.869%
20,CCOc1ccc(CCNC(=O)COC(=O)c2nn(C)c(=O)c3ccccc23)cc1OCC,2.8%
21,Br.COc1cc(NS(=O)(=O)c2ccc(Nc3nc(-c4ccccn4)cs3)cc2)nc(OC)n1,12.7%
22,N/C(CSc1ncccc1C(F)(F)F)=N\O,11%
23,COc1ccc(C2NCCc3[nH]cnc32)cc1 (stereo not shown),0.887%
24,C/C(=N\N1CCN(c2ccccc2)CC1)c1ccccc1O,10.4%
25,CCc1ccc(NC2=NCC(c3ccccc3)S2)cc1 (stereo not shown),14.1%
26,O=C(c1cccc(C(F)(F)F)c1)c1c[nH]c(C(=O)NCCCN2CCOCC2)c1,-8.13%
27,O=C(c1ccc([N+](=O)[O-])cc1)N(Cc1cccs1)C1CCS(=O)(=O)C1 (stereo not shown),-5.4%
28,COc1ccc(C(=O)NC(=S)Nc2cccnc2)cc1[N+](=O)[O-],5.33%

row,SMILES,"hERG current change (%, negative = inhibition) at 1uM"
1,O=C(O)c1ccc2c(c1)C(=O)N(Cc1ccco1)C2=O,17.2%
2,C[C@@H]1CC=C[C@H]2[C@H]1C(=O)N(Cc1ccccc1)[C@H]2c1ccoc1,17.3%
3,CCc1ccc(OCc2nnc(NC(=O)c3cccs3)s2)cc1,9.92%
4,COc1ccc(OC)c(C(=O)N/N=C/c2ccccn2)c1,13.9%
5,O=C(CN1CCCC1)NN=C(c1ccccc1)c1ccccc1,-49%
6,N#C/C(C(=O)N1CCOCC1)=C1/SC(Cc2ccccc2Cl)C(=O)N1c1ccccc1 (stereo not shown),-6.25%
7,COc1ccc(S(=O)CC(=O)Nc2ccc(Cl)cc2Cl)cc1 (stereo not shown),10%
8,CN(CC1CCOCC1)C(=O)CC1C(=O)NCCN1Cc1cccc(F)c1 (stereo not shown),13.9%
9,O=C(OC(C(=O)NC1CCCC1)c1ccncc1)C1=Cc2ccccc2OC1 (stereo not shown),11.4%
10,CC(C)OC(=O)/C(C#N)=C/c1cn(C)c2ccccc12,12.5%
11,CCOC(=O)Cn1c(C)c(C#N)c2ccccc21,8.11%
12,COc1ccccc1Nc1nc(C)nc2c1oc1ccccc12.Cl,15.3%
13,Cc1cc(Nc2ccc(C(=O)O)cc2)n2nc(C)nc2n1,-0.965%
14,CCCc1c(C(=O)Nc2ccc(F)cc2)cnn1-c1ccccc1,11.2%
15,CC(=O)NCCNc1ccc([N+](=O)[O-])cc1C#N,8.02%
16,COc1ccc(-c2csc(/C(C#N)=C(\O)CSc3nccn3C)n2)cc1OC,-7.27%
17,O=C(CN1C(=O)c2ccccc2C1=O)NCC(=O)OCC(=O)c1cccc([N+](=O)[O-])c1,10.3%
18,Cc1ccc([N+](=O)[O-])cc1N=Nc1c(C)[nH]n(C(N)=S)c1=O,10.4%
19,Cc1ccccc1CC(=O)N1CCCC(CCC(=O)N2CCN(c3ccccn3)CC2)C1 (stereo not shown),5.66%
20,O=C(c1cc2ccccc2oc1=O)N1CCN(c2ncccn2)CC1,13.1%
21,O=C(CSC1CC(=O)N(c2ccc(C(=O)O)cc2)C1=O)Nc1ccc2ccccc2c1 (stereo not shown),11.2%
22,COC(=O)C1CCN(c2nc3ccccc3nc2C(C#N)C(=O)NCCc2ccccc2)CC1 (stereo not shown),8.06%
23,O=C(O)C1CCN(S(=O)(=O)c2cccs2)CC1,10.9%
24,CCCCOc1cccc(-c2nnc(NC(=O)CSc3ccc(C)cc3)s2)c1,-2.82%
25,Cc1ccc(C(=O)Nc2nc3ccccc3n3nnnc23)cc1,-16.1%
26,Cc1ccc(SCc2cc(=O)c3c(=O)n(-c4ccccc4)[nH]c3[nH]2)cc1,9.44%
27,Cc1ccc(S(=O)(=O)N2CN(CC3CCCO3)c3nc4ccccc4nc32)c(C)c1 (stereo not shown),14.6%
